Reference: publication PMC4336329 (PLoS ONE, 2015)
Hit rate of the full screen: of about 310,000 compounds, about 14,000 (4.5%) showed an effect of 50% or more. The effect is printed as a negative number. Some of the results follow.

target: human ether-à-go-go-related gene (hERG) potassium channel (human, UniProt Q12809); assay: primary screen, population patch clamp on CHO cells stably expressing hERG
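Further: peak tail current of the secondary pulse compared with the same well before compound.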

Sequence of human ether-à-go-go-related gene (hERG) potassium channel (Q12809 whole entry, looked up): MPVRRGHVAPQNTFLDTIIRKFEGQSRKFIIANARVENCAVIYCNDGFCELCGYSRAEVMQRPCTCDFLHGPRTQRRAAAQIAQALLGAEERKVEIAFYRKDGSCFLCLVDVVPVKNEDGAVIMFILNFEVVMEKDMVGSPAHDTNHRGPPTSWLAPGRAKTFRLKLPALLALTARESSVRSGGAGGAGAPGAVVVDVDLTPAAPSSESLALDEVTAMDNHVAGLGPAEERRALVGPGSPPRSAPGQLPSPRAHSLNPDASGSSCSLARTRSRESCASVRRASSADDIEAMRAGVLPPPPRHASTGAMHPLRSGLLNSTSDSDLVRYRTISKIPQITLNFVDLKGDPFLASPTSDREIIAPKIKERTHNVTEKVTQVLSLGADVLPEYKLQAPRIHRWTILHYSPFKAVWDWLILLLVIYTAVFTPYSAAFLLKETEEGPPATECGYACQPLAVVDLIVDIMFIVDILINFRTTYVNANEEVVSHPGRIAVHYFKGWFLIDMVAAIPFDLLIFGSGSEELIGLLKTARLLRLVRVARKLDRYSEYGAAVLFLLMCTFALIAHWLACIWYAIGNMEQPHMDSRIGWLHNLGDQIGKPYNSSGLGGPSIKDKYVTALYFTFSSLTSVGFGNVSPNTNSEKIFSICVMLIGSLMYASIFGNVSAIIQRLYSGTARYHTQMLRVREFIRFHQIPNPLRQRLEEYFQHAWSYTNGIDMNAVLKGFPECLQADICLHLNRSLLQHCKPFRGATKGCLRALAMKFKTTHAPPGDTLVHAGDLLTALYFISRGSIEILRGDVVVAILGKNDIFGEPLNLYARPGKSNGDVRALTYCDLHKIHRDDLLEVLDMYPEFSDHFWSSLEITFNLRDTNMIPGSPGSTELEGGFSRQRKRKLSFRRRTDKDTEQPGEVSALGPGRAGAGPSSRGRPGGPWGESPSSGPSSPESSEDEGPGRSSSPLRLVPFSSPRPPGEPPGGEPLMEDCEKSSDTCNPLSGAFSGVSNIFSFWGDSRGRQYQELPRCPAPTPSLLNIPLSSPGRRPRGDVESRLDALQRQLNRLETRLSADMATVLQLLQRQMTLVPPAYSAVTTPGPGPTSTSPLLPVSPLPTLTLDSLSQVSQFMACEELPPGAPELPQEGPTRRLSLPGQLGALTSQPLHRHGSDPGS

| SMILES | hERG current change (%, negative = inhibition) at 10uM [%] |
| --- | --- |
| CCCn1c(-c2nonc2N)nc2ccccc21 | -12.9 |
| Cc1c(NS(=O)(=O)c2cc(C(=O)NCC3CCCO3)cc(Cl)c2Cl)c(=O)n(-c2ccccc2)n1C (centres unmarked) | -18.5 |
| CSc1nc(NS(=O)(=O)c2ccc(F)cc2F)nn1C | 14.9 |
| O=C(NCCN1CCOCC1)c1c(Cl)cccc1Cl | 15.7 |
| CO/N=C/c1cc([N+](=O)[O-])ccc1Sc1ccc(C)cc1 | -4.11 |
| O=C(NCc1ccccc1)c1cc(S(=O)(=O)N2CCCCC2)ccc1N1CCOCC1 | -20.1 |
| C[C@H]1CCC/C=C/C2C[C@H](O)CC2[C@H](O)/C=C/C(=O)O1 (some centres unmarked) | 14.4 |
| O=C(N/N=C/c1cc([N+](=O)[O-])ccc1O)c1c[nH]c2ccccc12 | 12.6 |
| Cc1cc(NC(=O)CSc2nnc(-c3ccncc3)n2Cc2ccccc2)n(-c2ccccc2)n1 | -58.8 |
| OC(COc1cccc2ccccc12)CN1CCN(c2ccc(Cl)cc2)CC1 (centres unmarked) | -3.42 |
| Cc1nn(-c2ccccc2)c(N2CCCC2)c1/C=N/NC(=O)c1cc(-c2ccccn2)nc2ccccc12 | -4.44 |
| O=C(Nc1ccc(Cl)cn1)C1CCCN(c2ncnc3c2nc2n3CCCCC2)C1 (centres unmarked) | -57.7 |
| CCOC(=O)Cn1c(=O)oc2cc(S(=O)(=O)N3CCN(C(=O)c4ccco4)CC3)ccc21 | -12 |
| COc1ccc(NC(=O)c2cc(OC)c(OC)c(OC)c2)cn1 | -10.3 |
| Cc1c(C(=O)O)sc2nc3n(c(=O)c12)CCC3 | 11.3 |
| COc1ccc(CN2CCN(Cc3cc(=O)oc4cc(C)ccc34)CC2)c(OC)c1OC | -80.2 |
| COc1cccc2cc(C(=O)NC3CC4CCC3C4)oc12 (centres unmarked) | -29.6 |
| S=C(Nc1ccccc1)N1CCC(C2CCN(C(=S)Nc3ccccc3)CC2)CC1 | 4.96 |
| COc1cccc(/C=C2\CCc3ccccc3C2=O)c1 | 24.8 |
| Cc1cc(N2CCOCC2)nc(-c2ccc(Br)cc2)n1 | 1.4 |
| COc1cccc2sc(Nc3nc4ccc(NC(C)=O)cc4s3)nc12 | 23.4 |
| CC(=O)c1ccc(OCC(O)Cn2nnc3ccccc32)cc1 (centres unmarked) | -0.772 |

| SMILES | hERG current change (%, negative = inhibition) at 10uM [%] |
| --- | --- |
| Cc1cc(OCC(=O)N2CCOCC2)c(C(C)C)cc1Cl | -4.17 |
| O=c1c2cccnc2[nH]c(=S)n1CCC1=CCCCC1 | -2.28 |
| CC1=CC(C)(C)N(C(=O)c2ccc(F)cc2)c2cc3c(cc21)OCO3 | 0.937 |
| CCO/C=C1/C(=O)N(C)C(=O)c2cc(OC)ccc21 | 13.5 |
| CC(C)n1cc(/C=N/NC(=O)COc2cccc3cccnc23)c2ccccc21 | 8.57 |
| COc1ccc(Cl)cc1NC(=O)CN1CCCC1.Cl | 5.1 |
| O=C(NC1CCCC1)C(c1cc2c(cc1[N+](=O)[O-])OCO2)N1CCCC1 (centres unmarked) | 20.6 |
| CCOC(=O)c1sc(NC(=O)CCSC)nc1C | -33.1 |
| O=C(Nc1cccnc1)C1(F)C(F)(F)C(F)(F)C(F)(F)C(F)(F)C1(F)F | -1.24 |
| COc1cccc(-c2nn(C)c3sc(C(=O)NCc4ccc(C)o4)cc23)c1 | -11.8 |
| Cc1[nH][nH]c(=O)c1N=Nc1ccc(Br)c(Cl)c1 | 20.4 |
| COc1cc(C(=O)NCc2ccc(C)cc2)ccc1OCc1c(C)noc1C | 0.719 |
| CCOC(=O)c1cnc(SCC(=O)c2ccc3c(c2)OCCO3)nc1N | -2.24 |
| CN(C)C(=O)c1cc(C(=O)c2ccc(C(F)(F)F)cc2)c[nH]1 | 13.6 |
| Cc1ccc(S(=O)(=O)c2ccc(Cl)cc2)cc1S(=O)(=O)N1CCOCC1 | -30.8 |
| C=CCn1c(SCc2nc3sc(C(=O)O)c(C)c3c(=O)[nH]2)nnc1-c1ccc(C(C)(C)C)cc1 | -15.9 |
| COc1cccc(-c2cc(C(=O)Nc3cccnc3)no2)c1 | 7.62 |
| CN(C(=O)c1ccc(Cl)cc1)C1=CCCCC1CCC#N (centres unmarked) | -9.12 |
| Cc1ccn2c(C(=O)N/N=C\c3ccccc3[N+](=O)[O-])c(C)nc2c1 | -27.2 |
| COc1ccc(NC(=O)C(c2ccccc2)c2ccccc2)c(OC)c1 | 11.5 |
| Cc1cc(OC(C)C(=O)NCC(O)c2ccccc2)c2c3c(c(=O)oc2c1)CCCC3 (centres unmarked) | -32.9 |
| NS(=O)(=O)c1cc(C(=O)OCC(=O)Nc2ccc(Cl)cc2[N+](=O)[O-])ccc1Cl | -16.7 |

| SMILES | hERG current change (%, negative = inhibition) at 10uM [%] |
| --- | --- |
| O=C(c1ccccc1)N1CCN=C1c1ccccc1 | 2.72 |
| Cc1ccc2[nH]c(=O)c(CN(c3cccc(C)c3C)S(=O)(=O)c3ccccc3)cc2c1 | -3.33 |
| COc1cc(C(=O)NCc2cn3ccsc3n2)cc(OC)c1OC | 21.5 |
| COc1cc(CC(=O)Nc2sccc2C(N)=O)cc(OC)c1OC | 4.1 |
| O=C(Nc1nnc(-c2ccco2)o1)c1cccc(N2C(=O)CCC2=O)c1 | 7.91 |
| O=C(O)CNC(=O)c1ccc(NC(=O)/C(=C/c2ccccc2)NC(=O)c2ccco2)cc1 | 8.31 |
| Cc1cc(NC(=O)CSc2nc3cc4c(cc3c(=O)n2CCc2ccccc2)OCO4)no1 | 10.9 |
| CCC1(c2ccc(C)cc2)NC(=O)N(CC(=O)Nc2cccc(S(=O)(=O)N3CCCC3)c2)C1=O (centres unmarked) | 0.0785 |
| CCN(CC)CCNC(=O)C1(O)c2cc(Br)ccc2NC(=O)N1c1ccccc1 (centres unmarked) | 18 |
| CCC1C(=O)N=C(SCC(=O)NC2CCCCC2)NC1=O (centres unmarked) | 19.2 |
| O=C(Nc1ccc2oc(-c3cccnc3)nc2c1)c1ccc(Br)o1 | -6.11 |
| Cc1ccc(CNC(=O)CCc2nnc3ccc(N4CCC5(CC4)OCCO5)nn23)cc1 | 19.4 |
| CCN(CC)S(=O)(=O)c1ccc(N2CCCC2)c(C(=O)OCC(=O)N2CCCC2)c1 | -3.73 |
| CSc1ccccc1NC(=O)COc1nsnc1N1CCOCC1 | 3.25 |
| COCCNC(=O)CCC1CCN(C/C=C/c2ccccc2OC)CC1 | -3.87 |
| NC(=O)COC(=O)c1ccc2c(c1)S(=O)(=O)c1ccccc1C2=O | -12.5 |
| CC(C)c1cc(=O)n2[nH]c(SCc3ccccc3Cl)nc2n1 | 23.7 |
| CCN(CC)S(=O)(=O)c1cc([N+](=O)[O-])ccc1NNC(=O)Nc1ccc(F)cc1 | 4.25 |
| CC1(C)CC(=O)c2cn3nc(C(F)(F)F)nc3nc2C1 | 4.21 |
| Cc1ccc(N=Nc2ccc(N)cc2C)c(S(N)(=O)=O)c1 | 18 |
| CCn1cnc2c([N+](=O)[O-])c(NS(=O)(=O)c3ccc(C)cc3)ccc21 | -2.13 |
| Cc1onc(-c2ccccc2Cl)c1C(=O)Nc1ccccc1O | -1.22 |

| SMILES | hERG current change (%, negative = inhibition) at 10uM [%] |
| --- | --- |
| Cc1ccc(S(=O)(=O)Cc2ccc(C(=O)N3CCc4ccccc4C3)o2)cc1 | -62.2 |
| O=S(=O)(NCc1cc(-c2ccccc2Cl)no1)c1ccccc1 | -3.82 |
| Cc1ccc(SCC(=O)OCC(=O)N(C)CC(=O)Nc2ccccc2Cl)cc1 | -7.22 |
| O=C1N(CC(=O)N2CCc3ccccc32)CCN1Cc1ccccc1Cl | -12.1 |
| Cl.O=C(NCc1ccccc1)N1CCNCC1 | 12.6 |
| CCC(CC)c1nc(C#N)c(NCc2ccccc2)o1 | 9.58 |
| CCOC(=O)/C(N=Nc1c(C)n(C)n(-c2ccccc2)c1=O)=C(/O)c1ccccc1 | -7.39 |
| O=C(COC(=O)C12CC3CC(CC(C3)C1)C2)Nc1ccc([N+](=O)[O-])cc1Br | 8.64 |
| Cc1ccc(S(=O)(=O)N2CCC(NC(=O)OC(C)C)CC2)cc1 | -4.43 |
| O=C1c2cccc3cccc(c23)C(=O)N1c1ccncc1 | -2.74 |
| CCN1C(=O)C(CC(=O)Nc2ccc(OC)cc2)N(CCc2ccc(F)cc2)C1=S (centres unmarked) | -6.48 |
| O=S(=O)(NC1CCCCC1)c1cccs1 | 5.86 |
| COCCN(C(=S)Nc1ccc(OC)cc1)C1CCN(C(C)C)CC1 | 0.163 |
| O=C(NCC1CCCO1)c1cccnc1Nc1ccccc1F (centres unmarked) | 7.87 |
| Cc1ccc(CNC(=O)c2ccc(N3CCC4(CC3)CC(c3ccccc3)=NO4)c(NC(=O)c3c(Cl)cccc3Cl)c2)cc1 | 27.5 |
| CNS(=O)(=O)c1cccc(C(=O)NCC(c2cccs2)N2CCOCC2)c1 (centres unmarked) | 2.68 |
| CCOC(=O)CNC(c1ccccc1)c1cc(Br)ccc1NC(=O)CCN1CCOCC1 (centres unmarked) | -68 |
| Cc1cc(OCC(=O)Nc2cccc(S(=O)(=O)NC3=NCCCCC3)c2)ccc1Cl | -24.7 |
| O=S(=O)(NCCNS(=O)(=O)c1cccs1)c1cccs1 | -3.62 |
| Fc1ccc(/C=N/NC(=S)Nc2ccc(Cl)cc2)cc1F | 9.62 |
